Experimental data: PubChem BioAssay AID902 (National Center for Advancing Translational Sciences (NCATS), 2007)
“And” between values parts separate entries of the source, which are not always exact repeats. Equal values may be shown once. The campaign covered roughly 130,000 compounds. About 1,900 (1.5%) were called active. The inconclusive results got no clear call from the source; some entries with a clear call stand among them for comparison. Calls come from the whole dose curve; as a rule, active = well fitted cell-killing curve with a large enough effect; inconclusive = small, poorly fitted or top-dose-only effect; inactive = no such curve, though single readings can be large or run the other way. Potencies beside an inconclusive call are fits to weak or partial responses and may not hold up.

Test: qHTS Screen for Compounds that Selectively Target Cancer Cells with p53 Mutations: Cytotoxicity of p53ts Cells at the Nonpermissive Temperature; note: nearly all actives have a fitted effect of over 55% in size
Conditions: H1299-p53A138V viability at 39C, ATP luminescence, 24 h; activity change, negative = cell killing: at 46.1 µM (top of the series)
% is set by controls: 0 for no effect and ±100 for the full control effect; potency is the fitted concentration of half-maximal effect; tags give direction and shape of the fitted curve.

SMILES	Potency	activity change, negative = cell killing
COc1ccc(-n2ncc3c(N4CCN(c5cccc(C)c5)C(C)C4)ncnc32)cc1 (stereo not drawn)	inconclusive: 1 µM [cytotoxic, full curve]	–
c1coc(-c2nnc(SCc3cn4ccccc4n3)o2)c1	–	inactive: 3.47%
CCOC(=O)c1c(C)oc2nc(C)nc(NCC3CCN(Cc4ccc(Cl)cc4)CC3)c12	–	inactive: -1.59%
CCN(c1ccccc1)S(=O)(=O)c1nnc(NC(=O)COc2ccc(OC)cc2)s1	–	inactive: -1.65%
Cc1ccc(-n2nnc3c(sc4nc(C)c(C)cc43)c2=O)cc1Cl	–	inactive: 3.03%
CC(C)CN(c1ccccc1)S(=O)(=O)c1nnc(NC(=O)c2ccco2)s1	inconclusive: 0.631 µM [cytotoxic, full curve]	–
COCCCNC(=O)Cn1c(=O)n(CCCC(=O)NCc2ccc(C)cc2)c(=O)c2ccccc21	–	inactive: -24%
O[Si@](CCCN1CCCCC1)(c1ccc(F)cc1)C1CCCCC1	inconclusive: 31.6 µM [cytotoxic, single point]	–
COc1ccc(NC(=O)N2CCc3c(sc4c3CCCC4)C2c2ccc(F)cc2)cc1 (stereo not drawn)	inconclusive: 12.6 µM [cytotoxic, partial curve, poor fit]	–
CCn1c(=O)c2cc(C(=O)N(C)c3cc(C)ccc3C)sc2c2ccccc21	–	inactive: 9.11%
CC(=O)OCC1OC(C#CC2=CCCCC2)C=CC1OC(C)=O (stereo not drawn)	–	inactive: -3.55% [at 9.22 µM]
COc1ccc(NC(=O)c2oc3ccccc3c2NC(=O)Cc2ccc(F)cc2)c(OC)c1	inconclusive: 15.8 µM [cytotoxic, single point]	–
Cn1nc(C(=O)Nc2ccccc2C#N)c2c1-c1ccccc1SC2	–	inactive: 24.5%
CC1CCN(C(=O)c2ccc(NC(=O)c3nsc4ccccc34)cc2)CC1	inconclusive: 31.6 µM [cytotoxic, single point]	–
COc1ccc(-c2cn3c(n2)sc2cc(C(=O)NCc4ccccc4)ccc23)cc1	inconclusive: 2.51 µM [cytotoxic, partial curve]	–
Cc1ccc(CNc2c(C)c(C)nc3nncn23)cc1	inconclusive: 0.004 µM [cytotoxic, full curve, poor fit]	–
CCOc1ccccc1N1CC(c2nc3ccccc3n2CCCCOc2ccccc2)CC1=O (stereo not drawn)	inconclusive: 12.6 µM [cytotoxic, single point]	–
CCCCCn1c(NCc2ccccc2OC)nc2ccccc21	inconclusive: 12.6 µM [cytotoxic, single point]	–
CCCS(=O)(=O)c1ncc(Cl)c(C(=O)Nc2c(C(=O)c3ccccc3)oc3ccccc23)n1	inconclusive: 6.31 µM [cytotoxic, partial curve, poor fit]	–
C=CCNc1nc(-c2cc3ccccc3o2)cs1	inconclusive: 11.2 µM [cytotoxic, partial curve]	–
Cc1coc2cc3oc(=O)c(CC(=O)NCc4ccc(F)cc4)c(C)c3cc12	inconclusive: 6.31 µM [cytotoxic, partial curve]	–
Oc1ccccc1-c1nc(/C=C/c2ccccc2Cl)no1	active: 7.94 µM	–
CCN(CCCNC(=O)c1nn(-c2ccc(C)cc2)c(=O)c2c1c1ccccc1n2C)c1ccccc1	inconclusive: 12.6 µM [cytotoxic, single point]	–

SMILES	Potency	activity change, negative = cell killing
CCOC(=O)c1[nH]c(C)c(C(=O)Nc2ccc3c(c2)CCC3)c1C	–	inactive: -11%
Cc1ccc(CCNC(=O)CCn2c(=O)c3cccn3c3ccc(F)cc32)cc1	inconclusive: 5.62 µM [cytotoxic, single point]	–
COc1cccc(N(C(C)=O)c2nc(C)cc(C)c2C#N)c1	inconclusive: 31.6 µM [cytotoxic, single point]	–
c1ccc2c(Oc3ccc4c(c3)OCO4)nncc2c1	inconclusive: 12.6 µM [cytotoxic, partial curve]	–
O=C(NCC12CC3CC(CC(C3)C1)C2)c1cc2n(n1)C(C(F)(F)F)CC(c1ccco1)N2 (stereo not drawn)	active: 20 µM	–
O=C(CN1CCN(Cc2ccccc2Cl)C1=O)NCc1ccccc1Cl	inconclusive: 15.8 µM [cytotoxic, partial curve]	–
COCCCNC(=O)CSc1nc(-c2cccc(F)c2)[nH]c1-c1ccccc1	–	inactive: 2.35%
COc1ccccc1OCC(=O)Nc1ccccn1	active: 7.94 µM	–
CCN(CCCNC(=O)c1cc2c(=O)[nH]c3ccccc3c2s1)c1ccccc1	inconclusive: 12.6 µM [cytotoxic, single point]	–
Cc1cc(C)n2c(SC/C(O)=C(\C#N)c3nc4ccccc4[nH]3)nnc2n1	–	inactive: 2.24%
Cn1nc(-c2ccc(Cl)cc2)c2cc(C(=O)NCCCN3CCCC3)sc21	inconclusive: 31.6 µM [cytotoxic, single point]	–
Cc1c2cnn(CC(=O)NCc3ccccc3)c(=O)c2c(C)n1Cc1cccc(Cl)c1	inconclusive: 12.6 µM [cytotoxic, partial curve, poor fit]	–
Cc1cccn2cc(-c3cccc(NS(=O)(=O)c4ccc(Cl)c(Cl)c4)c3)nc12	inconclusive: 12.6 µM [cytotoxic, partial curve]	–
Cc1cc(=O)oc2c(O)c(O)ccc12	inconclusive: 31.6 µM [cytotoxic, single point]	–
COc1cccc(CNCCSc2nnnn2C)c1OCc1ccc(Cl)cc1Cl	inconclusive: 15.8 µM [cytotoxic, partial curve]	–
COc1ccccc1CNC(=O)Cn1c(=O)oc2cc(S(=O)(=O)N3CCC(C)CC3)ccc21	inconclusive: 0.251 µM [cytotoxic, full curve, poor fit]	–
CC(C)(C)C(=O)C1C(=O)c2ccccc2C1=O	–	inactive: 7.74%
Cc1c(C(=O)NCc2ccoc2)oc2ccc3c(c12)C(=O)CC(C)(C)O3	inconclusive: 3.98 µM [cytotoxic, partial curve]	–
COC(=O)NC(/C=C/c1ccccc1)[C@]1(C(C)=O)CCCC1=O (stereo partly drawn)	–	inactive: 11.8% [at 9.22 µM]
Cc1cc(C)c(C#N)c(N2CCOCC2)n1	–	inactive: 10.3%
CCc1ccc(NC(=O)Cn2c(=O)c(CNc3ccccc3)cc3cc(OC)c(OC)cc32)cc1	inconclusive: 3.98 µM [cytotoxic, full curve, poor fit]	–
O=C(Nc1nc2c(s1)CCCC2)c1ccc(Br)o1	inconclusive: 3.16 µM [cytotoxic, full curve]	–
CC(=O)c1sc(NC(=O)C(C)(C)C)nc1C	–	inactive: 22.4%

SMILES	Potency	activity change, negative = cell killing
CS(=O)(=O)N1CCc2cc(C(=O)Nc3ccc(Cl)c(C(F)(F)F)c3)ccc21	inconclusive: 10 µM [cytotoxic, partial curve]	–
O=c1oc2ccccc2n1CCCOc1ccccc1Cl	inconclusive: 12.6 µM [cytotoxic, partial curve]	–
O=C(CN1C(=O)CCC1=O)Nc1nc(-c2nc3ccccc3s2)cs1	inconclusive: 31.6 µM [cytotoxic, single point]	–
CC1(C)CC2CC(C)(CN2C(=O)COC(=O)c2ccc(Cl)cc2N)C1 (stereo not drawn)	–	inactive: -13.9%
CCOC(=O)c1sc(NC(=O)C(C)Oc2ccc(OC)cc2)c(C(=O)OCC)c1C (stereo not drawn)	–	inactive: 8.67%
CCOc1cc(C(Nc2cc(C)ccn2)c2ccc3cccnc3c2O)ccc1OC (stereo not drawn)	inconclusive: 2.51 µM [cytotoxic, full curve]	–
CN(C)c1ccc(C(=C2C=CC(=[N+](C)C)C=C2)c2ccc(N(C)C)cc2)cc1	inconclusive: 10 µM [cytotoxic, full curve] and inconclusive: 3.16 µM [cytotoxic, full curve]	–
Cc1ccc2c(c1)c(=O)c1ccccc1n2CCCC(=O)Nc1ccc(Cl)c(Cl)c1	inconclusive: 3.98 µM [cytotoxic, partial curve]	–
CCOC(=O)N1CCc2c(sc(NCc3cccs3)c2C(=O)Nc2cc(Cl)ccc2OC)C1	inconclusive: 0.158 µM [cytotoxic, full curve, poor fit]	–
COc1cccc(-c2ccc3ncnc(NCCc4c[nH]c5ccc(OC)cc45)c3c2)c1	inconclusive: 20 µM [cytotoxic, single point]	–
O=C1c2ccccc2C(=O)N1Cc1nc(-c2ccccc2)no1	–	inactive: 2.96%
COc1cccc(C(=O)Nc2ccc(N(C)C)cc2)c1OC	inconclusive: 12.6 µM [cytotoxic, single point]	–
O=C(CSc1ccc2nnc(-c3cccnc3)n2n1)N1CCOCC1	inconclusive: 31.6 µM [cytotoxic, single point]	–
CCn1nc(CC(=O)Nc2nnc(CC(=O)N3CCCCC3)s2)c2ccccc2c1=O	–	inactive: 7.47%
CCOC(=O)c1c(C)c(-c2ccccc2)n(CC(=O)NCc2ccccc2)c1C	inconclusive: 12.6 µM [cytotoxic, partial curve, poor fit]	–
CC1=C(C(=O)OCc2ccccc2)C(C2CCCCC2)NC(=O)N1CCCCCC(=O)O (stereo not drawn)	–	inactive: 7.01%
Cc1ccc(NC(=O)Cn2c(=O)n(CCC(C)C)c(=O)c3cccnc32)cc1C	inconclusive: 31.6 µM [cytotoxic, single point]	–
CCC(C(=O)NCCC(C)C)N(C(=O)Cn1nnc(-c2ccc(C)cc2)n1)c1cccc(O)c1 (stereo not drawn)	inconclusive: 31.6 µM [cytotoxic, single point]	–
CC(=O)OCC1OC(c2ccc3c(c2)OCO3)C=CC1OC(C)=O (stereo not drawn)	–	inactive: 3.63% [at 9.22 µM]
CCOc1ccc(-c2cc(C(=O)N3CCN(c4ccccn4)CC3)c3ccccc3n2)cc1	inconclusive: 1 µM [cytotoxic, full curve]	–
CCN(CC)CCNC(=O)c1cc2c(-c3cccc(OC)c3)nn(C)c2s1	inconclusive: 12.6 µM [cytotoxic, single point]	–
CCOc1ccccc1NC(=O)Cn1c(=O)n(CCCC(=O)NCc2ccc(C)cc2)c(=O)c2ccccc21	inconclusive: 31.6 µM [cytotoxic, single point]	–
